This note sets out measurements from PubChem BioAssay AID463173 (ICCB-Longwood Screening Facility, Harvard Medical School, 2010).

Screen size: about 52,000 compounds; about 1,700 (3.3%) were called active. Rule as the data show it: active = survival mostly below about 52% (no sharp cut-off); inactive = mostly above about 56%. The list shows a part of the results.

This assay concerns Wild type. Briefly: growth inhibition of S. aureus wild type versus tarO mutant, primary screen, teichoic acid synthesis inhibitors, RN4220, OD600 (AID 463173). Conditions: S. aureus RN4220 wild type/DeltatarO growth, OD600, 18 h, stronger effect = lower value, screened at 18.75 µg/mL (by protocol).
In the case of `CCOc1ccc2nc3c(cc2c1)CN(CCO)C(=Nc1cccc(OC)c1)S3`, the survival was inactive: 107%.

With `COc1cc(-c2noc(C3CC(=O)N(c4cc(C)ccc4C)C3)n2)cc(OC)c1OC` (centres undefined), the survival was inactive: 73%.

Regarding `Cc1ccsc1CCN1C(=O)N(c2ccc(F)cc2)C(=O)C1CC(=O)Nc1ccccc1` (centres undefined), the survival is inactive: 72%.

Consider `CN1C(=O)Cc2cc(S(=O)(=O)CCC(=O)N3CCN(c4cccc(Cl)c4)CC3)ccc21`, for which the survival was inactive: 83%.

With `CCc1ccc(NC(=O)c2c(C(=O)Nc3ccccc3)sc3nc(C)cc(=O)n23)cc1`, the survival was inactive: 114%.

As to `CCOc1ccc(NC(=O)Cn2cnc3c(oc4ccccc43)c2=O)cc1`, the survival was inactive: 90%.

As for `COc1cccc(-c2cc(C(=O)N3CCN(c4ccc(F)cc4)CC3)no2)c1`, the survival is inactive: 78%.

Consider `COc1ccc(-n2nnnc2SCC(=O)c2ccc3c(c2)OCCO3)c(OC)c1`, for which the survival was inactive: 111%.

Take `COc1ccc2c(c1)c1c(c(=O)n(-c3cccc(C)c3)c(=O)n1CC(=O)N1CCCC1)n2C`: the survival was inactive: 82%.

With `Cc1cc(C)c2c(=O)cc(C(=O)Nc3ccc(S(=O)(=O)Nc4onc(C)c4C)cc3)oc2c1`, the survival is inactive: 85%.

For the compound `CC(C)(C)OC(=O)N1CCC(c2c(C(=O)NCc3ccccn3)cnn2-c2ccc(F)cc2)CC1`, the survival was inactive: 159%.

Take `Cc1ccc2c(=O)cc(C(=O)Nc3c(C(=O)c4ccccc4)oc4ccccc34)oc2c1C`: the survival is inactive: 94%.

Regarding `CCC(C)NC(=O)c1ccc2c(c1)N=C(C)c1cc(C)ccc1S2` (centres undefined), the survival was inactive: 113%.

On to `CCCn1cc(S(=O)(=O)c2cc(C)ccc2C)c(=O)c2cc(F)c(N3CCCCCC3)cc21`, for which the survival is inactive: 83%.

In the case of `COc1ccc(-c2cc(-c3ccccc3)nc3c2COc2ccccc2-3)cc1`, the survival was inactive: 51%.

Consider `CC(C)CC(=O)Nc1nnc2n1CCS2`, for which the survival was inactive: 73%.

With `CCOc1ccc(NCc2cccn2-c2nnc(N3CCC(C(=O)NCc4cccc(OC)c4)CC3)s2)cc1`, the survival is inactive: 75%.

As for `CCN1C(=O)c2ccccc2Sc2ccc(NC(=O)Cc3ccc(OC)cc3)cc21`, the survival is inactive: 83%.

With `CCc1ccccc1N(c1nc(-c2ccc(OC)c(OC)c2)no1)c1nc(-c2ccc(OC)c(OC)c2)no1`, the survival was inactive: 75%.

`COc1cccc(NC(=O)C(=O)NCCc2csc3nc(-c4ccccc4C)nn23)c1`: the survival is inactive: 81%.

For the compound `COc1ccc(-n2nnc(C(=O)Nc3ccccc3F)c2N)cc1`, the survival was inactive: 75%.

`Cc1ccc(Cc2nc3ccccc3nc2SCC(=O)NCCc2ccccc2)cc1`: the survival is inactive: 60%.

As for `COC(=O)c1c(NC(=O)c2nc(SC)ncc2Cl)sc2c1CCCC2`, the survival is inactive: 90%.

As to `CC(=O)NCc1nc2cccnc2n1Cc1ccccc1`, the survival was inactive: 87%.

As to `CC(=O)c1cc(-c2ccccc2)n(CCC(=O)NCCc2ccccc2)c1C`, the survival is inactive: 121%.

Turning to `c1ccc(-n2nnnc2N2CCCC2)cc1`, the survival is inactive: 102%.

As for `Cc1ccc(-c2nnn(CCC(=O)NC(C)(C)C)n2)cc1`, the survival was inactive: 120%.

Regarding `Cc1oc(-c2cccc(Cl)c2)nc1CSc1nnc(C)n2c1cc1occc12`, the survival was inactive: 86%.

Turning to `Cc1cccc(CCNC(=O)c2ccc3c(c2)nc2n3CCCCC2)c1`, the survival was inactive: 85%.

`Cc1nc2c(-c3ccc(F)cc3)c(C)nn2c(C)c1CCC(=O)N1CCN(c2ccc(F)cc2)CC1`: the survival is inactive: 73%.

On to `COc1ccc(Cl)cc1N(C)C(=O)Cc1noc2ccc(C)cc12`, for which the survival is inactive: 85%.

With `COc1ccccc1N1CCN(C(=O)Cn2cnc3sc(C)c(S(=O)(=O)N4CCC(C)CC4)c3c2=O)CC1`, the survival was inactive: 88%.

`CCc1cccc(C)c1NC(=O)Cn1c(=O)n(-c2cccc(C)c2)c(=O)c2c1c1cc(C)ccc1n2C`: the survival was inactive: 94%.

As for `CNC(=O)c1cc(-c2ccc(OC)cc2)nc2ccccc12`, the survival was inactive: 114%.

As for `Cc1cccc(Cc2c(C)nc3nc(SCC(=O)NCc4ccc(F)cc4)nn3c2C)c1`, the survival was inactive: 61%.

In the case of `CCOc1cccc(OCCCn2c(-c3ccc(Br)cc3)nc3ccccc3c2=O)c1`, the survival was inactive: 73%.

For `COc1cccc(CNC(=O)c2ccc(NC(=O)N3CCCCc4ccccc43)cc2)c1OC`, the survival was inactive: 73%.

For `CC(=O)c1cccc(NC(=O)C(C)n2c(=O)cc(-c3ccccc3)c3c(C)nn(C)c32)c1` (centres undefined), the survival is inactive: 124%.

As to `CCOc1ccc(-c2cc(-c3nc(-c4ccc(C)cc4)no3)[nH]n2)cc1`, the survival is inactive: 87%.

Take `CCN1C(=O)c2ccccc2S(=O)(=O)c2ccc(C(=O)NCc3ccccc3Cl)cc21`: the survival is inactive: 142%.

In the case of `COC(=O)CSc1ncc2c(n1)-c1ccccc1N(Cc1cccc(F)c1)S2(=O)=O`, the survival was inactive: 70%.

As to `Cc1cc(C(=O)C(=O)Nc2nnc(C(C)C)s2)c(C)n1-c1ccccc1`, the survival is inactive: 101%.

In the case of `CCOC(=O)C1CCN(C(=O)CSc2n[nH]c(-c3ccc(F)cc3)n2)CC1`, the survival was inactive: 90%.

With `COc1cccc(CNC(=O)c2c(C)oc3nc(C)nc(N4CCOCC4)c23)c1`, the survival was inactive: 73%.

Turning to `CCc1cccc(C)c1NS(=O)(=O)c1c(C)nc2sccn2c1=O`, the survival was inactive: 71%.

Take `O=C(Cn1c(=O)oc2cc(S(=O)(=O)N3CCCC3)ccc21)NCc1ccc(F)cc1`: the survival is inactive: 127%.

`CCN(CC)S(=O)(=O)c1ccc2c(c1)N(CC(=O)N1CCN(c3ccc(Cl)cc3)CC1)C(=O)CO2`: the survival is inactive: 81%.

Consider `O=C(NC1CCCCCC1)C1c2ccccc2C(=O)N1Cc1ccccc1Cl` (centres undefined), for which the survival is inactive: 90%.

Regarding `Cc1cccc(C(=O)Nc2ccc(OCc3cc(=O)n4ccsc4n3)cc2)c1`, the survival was inactive: 82%.

With `CCOC(=O)c1c(-c2ccccc2)csc1NC(=O)c1cc(-c2ccc(C)c(F)c2)on1`, the survival is inactive: 82%.

`O=C(Cn1ccc2cc(S(=O)(=O)N3CCCCCC3)ccc21)NCCc1ccc(Cl)cc1`: the survival was inactive: 72%.

For `CC(C)(C)C(=O)NC1CCN(S(C)(=O)=O)CC1`, the survival is inactive: 94%.

With `Cc1ccc(Cl)cc1N1CCN(C(=O)CCCCCn2c(=O)[nH]c3ccccc3c2=O)CC1`, the survival is inactive: 68%.

On to `Cc1cc(C(=O)c2cccs2)c(N)s1`, for which the survival is inactive: 90%.

Regarding `CCOc1ccccc1-c1nc(SCC(=O)c2ccc(OC)c(Br)c2)n[nH]1`, the survival is inactive: 79%.

Turning to `CCc1ccc(NC(=O)C2CCCN(S(=O)(=O)c3c(C)noc3/C=C/N(C)C)C2)cc1` (centres undefined), the survival was inactive: 57%.

Take `CCN1CCN(C(=O)c2ccc3c(c2)N(Cc2ccccc2F)C(=O)c2ccccc2S3=O)CC1` (centres undefined): the survival was inactive: 92%.

For `O=C1N(CN2CCCCC2)c2ccccc2C12OCCCCO2`, the survival was inactive: 95%.

As to `CC(C)OC(=O)c1cccnc1SCC(=O)Nc1ccc(C(F)(F)F)cc1Cl`, the survival was inactive: 89%.

As for `O=c1c2sccc2n(Cc2cc(=O)n3ccccc3n2)c(=O)n1-c1cccc(C(F)(F)F)c1`, the survival is inactive: 79%.

Take `Cc1cnc(=O)[nH]c1SCC(=O)Nc1nc2ccccc2s1`: the survival was inactive: 89%.

In the case of `Cc1ccc2oc(-c3cccc(NC(=O)c4sc5c([N+](=O)[O-])cccc5c4Cl)c3)nc2c1`, the survival is inactive: 62%.

Consider `O=C(NCCCO)Nc1ccc(Cl)cc1`, for which the survival is inactive: 109%.

For the compound `Cc1cc2c(cc3c(SCC(=O)Nc4cccc(Cl)c4C)nnc(C)n32)o1`, the survival is inactive: 113%.

As for `Cc1ccc(-c2nnc(SCC(=O)NCc3ccccc3)nc2-c2ccc(C)cc2)cc1`, the survival is inactive: 78%.

For `COc1ccccc1N1CCN(C(=O)c2cnc(N3CCCCC3)c3ccccc23)CC1`, the survival was inactive: 72%.

Take `CNS(=O)(=O)c1cc(-c2nnc(Nc3cc(C)ccc3C)c3ccccc23)ccc1C`: the survival is inactive: 103%.

As for `Cc1cc(-c2ccc(C)c(S(=O)(=O)Nc3cccc(C#N)c3)c2)on1`, the survival is inactive: 71%.

For `COc1ccc(/C=C/C(=O)Nc2ccc(Cl)c(Cl)c2)cc1`, the survival is inactive: 80%.

As to `CCOc1ccc(CCNC(=O)c2c(C)oc3ncn(C)c(=O)c23)cc1`, the survival is inactive: 82%.

`O=C(COc1ccc(F)cc1)NCCc1nc2ccccc2[nH]1`: the survival was inactive: 69%.

`CC(C)CCOc1ccccc1Cn1c(=O)sc2ccccc21`: the survival is active: -1%.

For `CCOC(=O)c1cc(-c2ccccc2)n(CCC(=O)Nc2nc3c(C)cccc3s2)c1C`, the survival was inactive: 71%.

With `Cc1ccc(Cl)cc1N1CCN(C(=O)c2ccc3nc(N4CCC(C)CC4)sc3c2)CC1`, the survival was inactive: 16%.

For the compound `Cc1ccccc1NS(=O)(=O)c1ccc2[nH]c3c(c2c1)CCCCC3`, the survival was inactive: 80%.

Turning to `Cn1c(=O)c2sccc2n2c(CCCC(=O)Nc3ccc(Oc4ccc(Cl)cc4)cc3)nnc12`, the survival is inactive: 32%.

In the case of `N#CCCSc1nnc(-c2ccncc2)n1Cc1ccccc1`, the survival was inactive: 105%.

In the case of `CCc1ccc(-n2c(=O)c3c(C)c(C(=O)N(C)C)sc3n(Cc3ccccc3F)c2=O)cc1`, the survival is inactive: 73%.

As for `O=C(CN(C(=O)CSc1nc2ccccc2o1)c1cccc(F)c1)NC1CCCCC1`, the survival is inactive: 101%.

`CCOc1ccccc1CNC(=O)CCn1ccc2cc(S(=O)(=O)N3CCCCC3)ccc21`: the survival was inactive: 133%.

Regarding `CC(=O)N1c2c(cc(Br)cc2S(=O)(=O)N2CCN(c3ccccc3)CC2)CC1C` (centres undefined), the survival was inactive: 98%.

`Cc1ccc(-c2cc3c(N4CCN(c5cc(C)ccc5C)CC4)nccn3n2)cc1`: the survival is inactive: 63%.

With `Cc1oc(-c2ccccc2Cl)nc1CS(=O)CC(=O)NCc1ccccc1Cl` (centres undefined), the survival was inactive: 66%.

As for `COc1ccc(NC(=O)CN2CCN(CC(=O)Nc3ccccc3F)CC2)cc1OC`, the survival was inactive: 82%.

In the case of `O=C(N=Nc1c(O)[nH]c2ccccc12)C1CC1c1ccccc1` (centres undefined), the survival was inactive: 124%.

Turning to `O=C1CSC(=S)N1C1CCS(=O)(=O)C1` (centres undefined), the survival is inactive: 115%.

With `CCOc1ccc(N2C(=O)CC(N3CCCCC3CC)C2=O)cc1` (centres undefined), the survival is inactive: 99%.

As for `CCOC(=O)c1ccc(NC(=O)COc2cccc3c(=O)n(C)ccc23)cc1`, the survival was inactive: 55%.

In the case of `O=S(=O)(c1ccc(F)cc1)N(Cc1nc(-c2ccccc2)no1)C1CCCCC1`, the survival is inactive: 84%.
